Test results from ChEMBL document CHEMBL4888484, “Replenishing the malaria drug discovery pipeline: Screening and hit evaluation of the MMV Hit Generation Library 1 (HGL1) against asexual blood stage Plasmodium falciparum ,using a nano luciferase reporter read-out” (2022).
The whole screen tested about 150,000 compounds, of which about 540 (0.36%) showed an effect of 50% or more. Some of the results follow.

Test system: Plasmodium falciparum
Assay: Primary screen in NF54 nanoGlo assay, in single point, at 2uM, 72h; a lower Z score goes with more inhibition
Format: functional, Erythrocyte
Conditions: timepoint 72 hour

SMILES | % Inhibition [%] | Z score
O=C(O)c1csc(CNC(=O)C2(c3ccc(F)cc3F)CCCC2)n1 | -8 | 0.81
C#Cc1cccc(N(C(=O)Cc2ccc(C)nc2)C(C)C)c1 | -7 | 0.91
C[C@H](O)[C@H](NC(=O)c1ccccc1Nc1ccc(F)cc1)C(=O)OCc1ccccc1 | -10 | 1.6
O=C(NCC1(O)CCCC1)C(=O)Nc1cccc(N2CCCC2=O)c1 | -8 | 0.86
O=S(=O)(Cc1ccccc1)N1CC(N(Cc2ccccc2)C2CCOCC2)C1 | -3 | 0.55
Cc1cnc(-c2ccccc2)n1C[C@H]1CCCN(Cc2cccc(F)c2)C1 | -5 | 0.65
Cn1c(N2CCCC2)c(C#N)c(=O)n(C)c1=O | -10 | 1.28
Cc1cc(NC(=O)CN2CCN(Cc3ccc4c(c3)CCO4)CC2)on1 | 18 | -2.3
CC(C)COC(=O)c1cc(-c2cc(C(=O)OCC(C)C)c3ccccc3n2)nc2ccccc12 | -10 | 1.36
CN(CCOc1ccccc1Cl)CC(=O)N[C@H]1CCCc2ccccc21 | -5 | 0.8
Cc1nc(C)c(C(=O)N[C@](C)(c2ccc(Br)cc2)C(C)C)o1 | 30 | -4.06
CO[C@H]1CN(c2noc(-c3ccccc3)n2)CC[C@H]1N | -12 | 2.29
COCC1(C2CCC2)CN(C(=O)Nc2ccc(F)cc2-c2cnn(C)c2)C1 | -2 | 0.37
CC(=O)NCCNC(=O)CCC(=O)N1CCc2c(Cl)cccc21 | 35 | -3.98
CCCn1nccc1NC(=O)c1c(C)noc1C | -1 | 0.29
CC(C)(C)c1cc(CN2CC[C@H](NC(=O)c3ccccc3)[C@@H](O)C2)n[nH]1 | 6 | -1.17
CC[C@H]1CN(C(=O)c2ccc3[nH]nnc3c2)CCO1 | -15 | 1.99
NC(CC(=O)NC1CCCC1)=NOCCOc1ccc(F)cc1Cl | -11 | 1.34
CCNC(=O)c1nc(N(C)C)c2c(C)scc2n1 | 7 | -0.81
CCn1ccc(C(=O)N[C@H]2CCOC[C@@H]2OC)n1 | -7 | 0.83
CCCN(CCC)C(=O)CCc1ccccc1O | -11 | 1.76
COc1cccc(NC(=O)CN2CCN(Cc3ccc(F)cc3)S2(=O)=O)c1 | -18 | 1.57

SMILES | % Inhibition [%] | Z score
Cc1noc(C)c1CCNS(=O)(=O)c1ccc(C(C)(C)C)s1 | -8 | 0.77
C[C@H](Oc1ccccc1N)C(F)(F)F | -8 | 0.78
CC(C)OCCCNC(=O)C[C@@H](Cn1cnnn1)c1ccc(Cl)cc1 | -10 | 1.3
CC(C)CNC(=O)[C@@H]1CCN1S(=O)(=O)c1ccccc1 | -4 | 0.61
CC(C)Cn1cc(NCc2nc(-c3cnn(C)c3)cs2)cn1 | -1 | 0.15
C#CCCNC(=O)c1ccnc(OCCOC)c1 | -4 | 0.75
Cc1ccc([C@@H]2C=C(c3ccccc3)N(CC(=O)NCc3ccccc3C)c3nnnn32)cc1 | -6 | 0.59
COC(=O)c1nc(NC(=O)c2cc(-c3ccc4c(c3)CCO4)[nH]n2)sc1C | -10 | 1.03
CC(C)c1nc([C@@H]2CCCCCN2Cc2nnc(C3CC3)o2)no1 | 3 | -0.38
CC(C)c1nnc([C@H](C)NC(=O)C2(N3CCOCC3)CCCCC2)o1 | -15 | 1.57
CC(C)(C)OC(=O)NC[C@H]1CCCN(C(=O)c2cccn3ccnc23)C1 | -4 | 0.59
CCO[C@H]1CN(Cc2noc(C3CCCC3)n2)C[C@@H]1O | -1 | 0.1
CC(C)CC[C@H](C)N1CCC(n2cc(C3CC3)nn2)CC1 | -3 | 0.45
O=C1CC[C@H](C(=O)NCC(O)c2cc3ccccc3s2)N1 (some centres not stated) | 2 | -0.38
CN1c2cccnc2CN(C(=O)Nc2ccc(OC(F)(F)F)cc2)CC[C@H]1CO | 7 | -0.86
Cc1ccc(C)c(N/C(=N\OCc2ccc(Cl)cc2)c2nonc2N)c1 | -1 | 0.28
COc1ccc(CNC(=O)c2ccc(-c3nc(CN4CCc5ccccc54)c(C)o3)cc2)c(OC)c1 | -13 | 1.89
O=C1CN(c2nnc(C(F)(F)F)s2)CCN1CC1CCCC1 | -5 | 0.49
CCCCC(=O)Nc1cc(NC(=O)c2c[nH]nc2C(C)C)ccc1OC | -14 | 1.83
Fc1cccc(F)c1CNC[C@@H]1NCCc2ccccc21 | 47 | -5.59
CC1CN(S(=O)(=O)c2cccc(C(=O)Nc3ccccc3N(C)C)c2)CC(C)O1 (configuration not stated) | 5 | -0.56
CCCc1ncncc1C(=O)NCC[C@H]1CCOC1 | -2 | 0.49

SMILES | % Inhibition [%] | Z score
Cc1cccc(C)c1N1CCc2cnn(C(=O)Nc3cccc(Cl)c3)c21 | 13 | -1.63
COc1nccc(-c2cccc(-n3cccn3)c2)c1C#N | -9 | 0.92
CCNC(=O)N1CCC2(CC1)C[C@@H](c1ccccc1)C(=O)N(C1CC1)C2 | -13 | 1.61
Cn1c(CNC(=O)C2CCC2)nc2c1CN(S(=O)(=O)c1ccc(Cl)cc1)CC2 | -10 | 1.1
COc1ccc(N2CCN(c3cc(C)nn4cnnc34)CC2)cc1 | -14 | 2.34
CC(=Cc1csc(-c2ccccn2)n1)c1cnccn1 | -9 | 0.93
Cc1cc2c(cc1C)N(C(=O)COc1cccnc1)CC2 | -2 | 0.22
CCCOc1ccc(N2C(=O)C3ON(C(CC(=O)O)c4ccccc4)C(c4ccccc4)C3C2=O)cc1 (configuration not stated) | 2 | -0.36
O=C(NCc1cccnc1)NC1CCCC1Oc1ccccc1 (configuration not stated) | -8 | 0.86
NC(=O)c1cnc2n1CCN(C(=O)COc1ccccc1)C2 | -8 | 0.8
O=C(c1cc(C2CC2)n[nH]1)N1CCOCC1 | -14 | 1.56
CCN1C[C@H](CN(C)C(=O)c2ccoc2)Oc2ccccc21 | -8 | 0.7
CC(C)(C)OC(=O)N1CCC(OC(=O)n2ccnc2)CC1 | -4 | 0.52
CN1CCN(CC(=O)NCC2(Cc3ccccc3)CCCC2)CC1 | 1 | -0.11
CC(NCC1COC(C)(C)O1)c1cc(Cl)c(N)c(Cl)c1 (configuration not stated) | 2 | -0.28
O=C(NCCc1c[nH]cn1)c1ccc2c(c1)C(=O)N(C1CCCCCC1)C2=O | -1 | 0.19
CCCn1cc(CNc2ncc(CC)cn2)cn1 | -2 | 0.37
O=C(c1n[nH]c2c1CCC2)N1CCO[C@H](c2ccccc2)C1 | -2 | 0.26
O=S(=O)(N[C@H]1CCCc2cn(CC(F)(F)F)nc21)c1cccnc1 | -7 | 0.7
CCCN(C(=O)c1ccccc1OCC)c1nc(-c2ccc(C3CCCCC3)cc2)cs1 | -9 | 1.41
COC(=O)NC(C(=O)N1CCCC(CNC(=O)c2ccncc2Cl)C1)C(C)C (configuration not stated) | -5 | 0.42
CCCCNC(=O)N1CCN(c2nc(CCC)nc3onc(-c4ccccc4)c23)CC1 | 3 | -0.49

SMILES | % Inhibition [%] | Z score
CC(C)N1CCC(CC(=O)NCCn2cc(Cl)cn2)CC1 | 0 | -0.04
Cc1nnc(C23CC(CN2C(=O)NC[C@H](C)Oc2ccc(C(C)C)cc2)C3)o1 | -10 | 1.64
C[C@@H](c1nccs1)N(C)C(=O)c1cnc(-c2cccnc2)nc1 | 2 | -0.26
COc1ccc(N(CC(=O)NCCC#N)C(C)C)cc1F | -11 | 1.64
CCN(CC)c1ccc(C(C#N)N2CCOC(C)C2)cc1 (configuration not stated) | -9 | 1.28
Cc1nc2c(NC[C@@H]3C[C@H](CO)N(C)[C@@H]3c3ccccc3F)ncnc2o1 | -12 | 1.68
COCC1(C(=O)N2CCCN(CC3CC3)[C@H](C(C)C)C2)CCC1 | -4 | 0.87
O=C(c1ccoc1)N(Cc1ccco1)[C@H]1CCS(=O)(=O)C1 | 14 | -1.88
COc1ccc(CNC(=O)C2CCC(Cn3c(=O)[nH]c4ccsc4c3=O)CC2)cc1 (configuration not stated) | -11 | 1.1
Cc1csc(-c2noc(Cc3c[nH]c4ccccc34)n2)n1 | 6 | -1.15
CCOCCC1(C(=O)N(C)CCN(C)C(=O)[C@H]2CC[C@H](CC)CC2)CCC1 | -1 | 0.16
COc1cc(S(=O)(=O)Nc2ccccc2N(C)C)sn1 | 11 | -1.46
Cc1ccc(CNc2ccc(S(C)(=O)=O)cc2)c(=O)n1C | 33 | -4.41
c1cc(-c2nnn(CCc3ccc4c(c3)CCO4)n2)cs1 | -10 | 1.01
C#CCN(CCOC)Cc1cccc(C)n1 | -4 | 0.84
Cc1nc(C)c(COC(=O)C[C@@H](CN)CC(C)C)s1 | -34 | 3.97
Cc1cccn2c(=O)c(C(=O)NCc3cc(C4CC4)ccc3F)cnc12 | 2 | -0.17
CN1CCN(C)[C@@H](CNC(=O)NC(C)(C)CC(C)(C)C)C1 | 30 | -3.35
CC(C)CNCc1cccc(Br)c1 | 32 | -4.33
CC(C)c1ocnc1C(=O)OCc1ccc2[nH]nnc2c1 | 1 | -0.14
